Measurements: PubChem BioAssay AID1508624 (National Center for Advancing Translational Sciences (NCATS), 2021)
The campaign covered roughly 48,000 compounds. About 120 (0.25%) were called active. Inconclusive results (about 4%) are left out. The call rests on the fitted dose curve; in most records, active means well fitted activation curve with a large enough effect; inconclusive means small, poorly fitted or top-dose-only effect, or another doubt; inactive means no such curve, though single readings can be large or run the other way. The list shows a part of the results.

Experiment: Primary qHTS for Identification of Small Molecule Activators of Huntingtin-Antisense Promoter Activity; further: nearly all actives have a fitted effect of over 55% in size
Conditions: HEK293 HTT-AS promoter firefly luciferase reporter (activity 0% = vehicle and -100% = no light), 24 h; series mostly up to 57.5 µM; activity change, positive = activation: at the top concentration
How it was run: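 HEK293 cells carrying firefly luciferase reporters were seeded at 2,500 per well in Opti-MEM and cultured for 24 h. They were then treated with compounds at up to 57.5 uM final for 24 h at 37 degrees C before Dual-Glo luminescence readout.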

Compound | activity change, positive = activation
Cc1nc2c(c(C)c1CCC(=O)NCc1ccc(F)cc1)c(=O)n(C)c(=O)n2C | inactive: -5.42%
CCCCCN(CCCCC)C(=O)C(CCC(=O)O)NC(=O)c1ccc(Cl)c(Cl)c1 (stereo not given) | inactive: -4.04%
CCCCOc1cccc(C(=O)Nc2sc3c(c2C(=O)OCC)CCCC3)c1 | inactive: -7.47%
COc1cccc(NC(=O)CSc2nc(=O)n(Cc3cccnc3)c3c2CCC3)c1 | inactive: -20.8%
Cc1cccc2c(=O)cc(CSc3ccccc3NC(=O)C(C)C)[nH]c12 | inactive: -11.7%
Cc1ccc2nc3c(cc(C#N)c(=O)n3-c3nnc(SCc4ccc(F)cc4)s3)c(=O)n2c1 | inactive: -5.87%
CCOc1ccccc1NC(=O)Cn1c(=O)n(CC(=O)NCc2ccccc2Cl)c(=O)c2sccc21 | inactive: 7.14%
Cc1ccc(Sc2ccc(N3CCCC(C(=O)Nc4ccc(F)c(Cl)c4)C3)nn2)cc1 (stereo not given) | inactive: -24.5%
CCCN(CCC)C(=O)Cn1c(=O)n(-c2ccc(OC)cc2OC)c(=O)c2c3c(sc21)CCC3 | inactive: -14.1%
CCOc1ccc(CNC(=O)c2ccc3c(c2)c(C)c(C)n3C)cc1 | inactive: 0.259%
COc1ccc(CCNC(=O)CCCCn2c(=O)c3ccccc3n(Cc3cc(C)ccc3C)c2=O)cc1OC | inactive: -8.31%
CCOc1ccc(-n2c(SCc3ccccc3)nc3c([nH]c4ccccc43)c2=O)cc1 | inactive: -20.5%
CCCn1c2ccccc2c2cnn(CC(=O)NCC3CCN(Cc4ccc(C)cc4)CC3)c(=O)c21 | inactive: -36.6%
CCOC(=O)c1ccc(NC(=O)c2c(NCc3sccc3C)sc3c2CCC(C)C3)cc1 (stereo not given) | inactive: -45.6%
Cc1ccc(C)c(N2CCN(C(=O)CCc3nnc4n(C)c(=O)c5ccccc5n34)CC2)c1 | inactive: -0.254%
CN1CCN(C(CNC(=O)C(=O)Nc2ccc(Cl)cc2)c2cccnc2)CC1 (stereo not given) | inactive: -5.06%
CCOCCCNC(=O)c1c[nH]c2ccc(S(=O)(=O)N(C)c3ccc(Cl)cc3F)cc2c1=O | inactive: -32%
CCOC(=O)c1cccnc1SCC(=O)N(CC)c1cccc(C)c1 | inactive: -25.5%
CC(C)(C)c1ccc(OCC(=O)Nc2ccc(C(=O)OC3CCCCC3)cc2)cc1 | inactive: -3.88%
COc1ccc(F)cc1S(=O)(=O)NCC(c1ccco1)S(=O)(=O)c1cccs1 (stereo not given) | inactive: 15%

Compound | activity change, positive = activation
CC(C)Cn1nc(NC(=O)c2cccc(Cl)c2)c2cc3ccccc3nc21 | inactive: -5.52%
CCc1ccccc1NC(=O)c1oc(=O)c2ccccc2c1-c1ccccc1 | inactive: -15%
COc1ccc(Cl)cc1NC(=O)CSc1nc(=O)n(Cc2ccco2)c2c1CCC2 | inactive: -42.5%
Nc1ccc(O)cc1 | inactive: -3.03%
CCOC(=O)c1ccccc1NC(=O)c1cn(CC(C)C)c(=O)c2cc(OC)c(OC)cc12 | inactive: -0.684%
Cc1ccc(-n2ncc3c(Nc4ccc(Oc5ccccc5)cc4)ncnc32)c(C)c1 | inactive: -17.1%
COc1ccc(OC)c(-c2noc(CSc3nnc(-c4ccccc4)n3-c3ccccc3)n2)c1 | inactive: -32.3%
Cc1ccc(OCC(=O)Nc2nnc(S(=O)(=O)N3CCc4ccccc43)s2)cc1 | inactive: -13.2%
COc1ccc(N2CCN(S(=O)(=O)c3ccc(C4CCCCC4)cc3)CC2)cc1 | inactive: -8.03%
Cc1ccc(NC(=O)Nc2nnc(SCC(=O)N3CCCCC3)s2)cc1 | inactive: -12.7%
Cc1cc(N2CCOCC2)cc2[nH]c(-c3c(NC[C@@H](O)c4cccc(Cl)c4)cc[nH]c3=O)nc12 | inactive: -39.5%
COc1ccc(Nc2cc(C)c3cc(NC(=O)c4ccccc4Cl)ccc3n2)cc1 | inactive: -42.7%
COc1cccc(N2CC(NC(=O)c3cc4ccccc4o3)CC2=O)c1 (stereo not given) | inactive: -6.82%
Fc1ccc(-c2noc3ncnc(NCCc4ccc(Cl)cc4)c23)cc1 | inactive: -46.5%
CC(C)c1ccc2c(c1)NC(c1ccc(F)cc1)=NC(c1cccs1)=N2 | inactive: -11.4%
Cc1nc2ncnn2c(C)c1CCC(=O)N1CCN(c2ccc(F)cc2)CC1 | inactive: -11.3%
COc1cccc(CNC(=O)N2CCc3c(sc4c3CCCC4)C2c2ccc(F)cc2)c1 (stereo not given) | inactive: -54.1%
Cc1cccc(C(=O)NCCc2nc3ccccc3n2Cc2ccccc2Cl)c1 | inactive: -17.6%
Cc1cc(Nc2cccc(C(F)(F)F)c2)nc2ccc(NC(=O)Cc3ccc(Cl)cc3)cc12 | inactive: -46.3%
CCOC(=O)CCc1c(C)nc2c(-c3ccccc3)c(C)[nH]n2c1=O | inactive: -2.39%

Compound | activity change, positive = activation
O=C(CSc1nnc(-c2ccncc2)n1-c1ccccc1)Nc1ccc(F)cc1 | inactive: -17.5%
CCOc1ccccc1CNC(=O)CSc1n[nH]c(-c2ccccc2)n1 | inactive: -25.4%
CC(C)c1noc(-c2ccccc2OCC(=O)Nc2ccc([N+](=O)[O-])cc2)n1 | inactive: -9.31%
COc1ccc(OC)c(C2C(C(=O)Nc3ccc(C)cc3C)=C(C)Nc3c(C(=O)Nc4ccc(F)cc4)cnn32)c1 (stereo not given) | inactive: -3.34%
CCn1c2c(c(=O)n3ncc(C(=O)N4CCN(c5ccccc5)CC4)c13)CN(Cc1ccc(OC)cc1)CC2 | inactive: -18.4%
Cc1cc(=O)n(Cc2cccc(Cl)c2)c2c1c(C)nn2C | inactive: -24.2%
CCCCOc1cccc(C(=O)N(Cc2ccc(N(C)C)cc2)C2CCS(=O)(=O)C2)c1 (stereo not given) | inactive: -30.3%
O=C(Cn1cnc(S(=O)(=O)N2CCCC2)c1)Nc1cccc(Br)c1 | inactive: -17.1%
Cc1cc(-c2nc3ncccc3o2)ccc1NC(=O)c1ccccc1Br | inactive: 23.5%
O=C(COc1ccc(F)cc1)NCC(c1ccc(Cl)cc1)N1CCCCC1 (stereo not given) | inactive: -21.7%
Cc1ccc(CCNC(=O)CCCn2c(=O)c3ccccc3n(Cc3ccccc3C)c2=O)cc1 | inactive: -31.7%
COc1cc(OC)c(-c2cc(C(=O)NCc3ccc(F)cc3)c3c(-c4ccccc4)[nH]nc3n2)cc1OC | inactive: -29.9%
COc1ccc(CCNC(=O)Cn2c(=O)n(-c3ccccc3)c(=O)c3c(C)c(C)sc32)cc1OC | inactive: -9.65%
CC(=O)N1c2ccc(S(=O)(=O)N3CCCCCC3)cc2CC1C(=O)NCc1ccccc1C (stereo not given) | inactive: -4.72%
COCCCNC(=O)CCCn1c(SCC(=O)c2ccc(F)cc2)nc2c(sc3ccccc32)c1=O | inactive: -18.9%
C#C[C@]1(O)CC[C@H]2[C@@H]3CCc4cc(O)ccc4[C@H]3CC[C@@]21C | inactive: -21%
CCCCN(CCCC)CCC(O)c1cc2c(Cl)cc(Cl)cc2c2cc(C(F)(F)F)ccc12 (stereo not given) | inactive
COc1ccc(CNC(=O)CSc2ncc3c(n2)-c2ccc(Cl)cc2N(Cc2ccc(F)cc2)S3(=O)=O)cc1OC | inactive: -0.721%
CCOC(=O)c1ccc(NC(=O)CSc2nnc3c4ccccc4n(CC)c3n2)cc1 | inactive: -1.54%
COc1ccc(Cn2c(C(=O)O)c(CNCc3ccco3)c3ccc(OC)cc32)cc1 | inactive: -28.7%
